This note sets out measurements from the supplement of paper PMC4604168 (melanoma cell lines).

The other results are listed elsewhere or left out. Most values come without repeats; read them as rough.
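Note: cells treated in 1,536-well plates, then fixed and DAPI-stained, with nuclei counted from automated high-throughput microscope images.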

The assay deals with WM3619. The experiment in a line: cell count relative to DMSO control; melanoma cells; higher = more viable cells. The conditions noted are these: library dose: standard library concentration; 72 h.
For `CCN(CC)CCNC(=O)c1c(C)[nH]c(/C=C2\C(=O)Nc3ccc(F)cc32)c1C` [sunitinib] + CC1(C)NC(=O)N(c2ccc([N+](=O)[O-])c(C(F)(F)F)c2)C1=O [nilutamide] (first compound 2 µM, partner dose 5 µM), the cell count turned out to be 113%.

Consider `Cn1cnc2c(F)c(Nc3ccc(Br)cc3Cl)c(C(=O)NOCCO)cc21` [selumetinib] + CO[C@@H]1[C@H](N(C)C(=O)c2ccccc2)C[C@H]2O[C@]1(C)n1c3ccccc3c3c4c(c5c6ccccc6n2c5c31)C(=O)NC4 [Midostaurin] (first compound 0.075 µM, partner dose 0.4 µM), for which the cell count was determined as 76.3%. To `COc1cc([C@@H]2c3cc4c(cc3[C@@H](O[C@@H]3O[C@@H]5CO[C@@H](C)O[C@H]5[C@H](O)[C@H]3O)[C@H]3COC(=O)[C@H]23)OCO4)cc(OC)c1O` [etoposide] + Cc1cc(N2CCOCC2)cc2[nH]c(-c3c(NC[C@@H](O)c4cccc(Cl)c4)cc[nH]c3=O)nc12 [BMS536924] (first compound 0.1 µM, partner dose 1 µM) belongs 85.4%. `Cn1cnc2c(F)c(Nc3ccc(Br)cc3Cl)c(C(=O)NOCCO)cc21` [selumetinib] + C=CCn1c(=O)c2cnc(Nc3ccc(N4CCN(C)CC4)cc3)nc2n1-c1cccc(C(C)(C)O)n1 [MK1775] (first compound 0.075 µM, partner dose 0.1 µM) returned a cell count of 18.7%. The result for `COc1cc([C@@H]2c3cc4c(cc3[C@@H](O[C@@H]3O[C@@H]5CO[C@@H](C)O[C@H]5[C@H](O)[C@H]3O)[C@H]3COC(=O)[C@H]23)OCO4)cc(OC)c1O` [etoposide] + CO[C@@H]1[C@H](N(C)C(=O)c2ccccc2)C[C@H]2O[C@]1(C)n1c3ccccc3c3c4c(c5c6ccccc6n2c5c31)C(=O)NC4 [Midostaurin] (first compound 0.1 µM, partner dose 0.4 µM) reads 69.6%; that for `CCN(CC)CCNC(=O)c1c(C)[nH]c(/C=C2\C(=O)Nc3ccc(F)cc32)c1C` [sunitinib] + C[C@@H]1CCN(C(=O)CC#N)C[C@@H]1N(C)c1ncnc2[nH]ccc12 [CP690550] (first compound 2 µM, partner dose 5 µM), 82.3%; that for `COc1cc([C@@H]2c3cc4c(cc3[C@@H](O[C@@H]3O[C@@H]5CO[C@@H](C)O[C@H]5[C@H](O)[C@H]3O)[C@H]3COC(=O)[C@H]23)OCO4)cc(OC)c1O` [etoposide] + Nc1ccn([C@@H]2O[C@H](CO)[C@@H](O)C2(F)F)c(=O)n1 [gemcitabine] (first compound 0.1 µM, partner dose 0.002 µM), 51.2%.

For the molecule `COc1cc([C@@H]2c3cc4c(cc3[C@@H](O[C@@H]3O[C@@H]5CO[C@@H](C)O[C@H]5[C@H](O)[C@H]3O)[C@H]3COC(=O)[C@H]23)OCO4)cc(OC)c1O` [etoposide] + C=CCn1c(=O)c2cnc(Nc3ccc(N4CCN(C)CC4)cc3)nc2n1-c1cccc(C(C)(C)O)n1 [MK1775] (first compound 0.1 µM, partner dose 0.1 µM), the cell count amounted to 31.5%. To `C[C@]1(O)C[C@@H](c2nc(-c3ccc4ccc(-c5ccccc5)nc4c3)c3c(N)nccn32)C1` + Cc1cc(N2CCOCC2)cc2[nH]c(-c3c(NC[C@@H](O)c4cccc(Cl)c4)cc[nH]c3=O)nc12 [BMS536924] (first compound 2 µM, partner dose 1 µM) belongs 136%. The molecule `Cn1cnc2c(F)c(Nc3ccc(Br)cc3Cl)c(C(=O)NOCCO)cc21` [selumetinib] + O=C(CCCCCCC(=O)Nc1ccccc1)NO [vorinostat] (first compound 0.075 µM, partner dose 0.4 µM) returned a cell count of 49%. Consider `Cn1cnc2c(F)c(Nc3ccc(Br)cc3Cl)c(C(=O)NOCCO)cc21` [selumetinib] + CC(C)(C)c1cnc(CSc2cnc(NC(=O)C3CCNCC3)s2)o1 [SNS-032] (first compound 0.075 µM, partner dose 0.05 µM), for which the cell count came to 44.7%. With `COc1cc([C@@H]2c3cc4c(cc3[C@@H](O[C@@H]3O[C@@H]5CO[C@@H](C)O[C@H]5[C@H](O)[C@H]3O)[C@H]3COC(=O)[C@H]23)OCO4)cc(OC)c1O` [etoposide] + Cc1ccc(NC(=O)c2cccc(N(C)C)c2)cc1NC(=O)c1ccc(O)cc1 [ZM336372] (first compound 0.1 µM, partner dose 10 µM), the cell count was found to be 78.9%.
